Assay results reported in paper PMC6919601, “Identification of Plasmodium dipeptidyl aminopeptidase allosteric inhibitors by high throughput screening” (PLoS ONE, 2019).
Screen size: about 110,000 compounds; about 230 (0.21%) showed an effect of 50% or more. The list shows a part of the results.

target: DPAP1 (Plasmodium falciparum, UniProt Q8IIJ9); assay: primary screen, percent inhibition; read by cleavage of a fluorogenic dipeptide substrate; higher = more effect of the substance; parameters: species or system P. falciparum D10 trophozoite lysates; single well
Sequence (Q8IIJ9 whole entry, looked up): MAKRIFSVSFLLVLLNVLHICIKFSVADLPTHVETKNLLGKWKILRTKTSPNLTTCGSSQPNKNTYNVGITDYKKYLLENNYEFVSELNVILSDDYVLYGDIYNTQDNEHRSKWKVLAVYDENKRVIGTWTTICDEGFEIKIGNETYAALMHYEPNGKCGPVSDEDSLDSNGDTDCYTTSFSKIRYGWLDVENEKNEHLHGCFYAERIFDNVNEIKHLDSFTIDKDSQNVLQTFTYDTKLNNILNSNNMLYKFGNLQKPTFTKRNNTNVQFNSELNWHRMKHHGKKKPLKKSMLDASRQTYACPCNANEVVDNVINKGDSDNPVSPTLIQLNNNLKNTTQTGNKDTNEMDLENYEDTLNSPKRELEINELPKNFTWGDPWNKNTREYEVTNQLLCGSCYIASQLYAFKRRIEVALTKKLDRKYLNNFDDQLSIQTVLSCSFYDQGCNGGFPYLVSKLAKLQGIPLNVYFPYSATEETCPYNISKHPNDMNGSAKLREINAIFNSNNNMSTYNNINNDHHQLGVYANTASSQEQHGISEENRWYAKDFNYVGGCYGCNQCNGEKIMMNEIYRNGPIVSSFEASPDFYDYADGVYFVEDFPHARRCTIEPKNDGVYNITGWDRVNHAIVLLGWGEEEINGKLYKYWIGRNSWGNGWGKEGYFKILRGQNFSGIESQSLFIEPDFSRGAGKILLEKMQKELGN
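Note: 30 min substrate incubation versus DMSO and 10 µM JCP410 controls.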

First: O=C(/C=C/c1ccc(F)cc1)NC(Cc1c[nH]c2ccccc12)C(=O)O (centres unmarked)
Second: COc1ccc(C)cc1NC(=O)/C=C/c1ccccc1
The “% Inhibition @ 10 uM” value of the first is higher: 0.565% for the first, -5.11% for the second.

Going from `COc1cc(C(=O)Nc2ccc(C)cc2Br)cc(OC)c1OC` to `COc1cc(C2=N/C(=C\c3ccc(SC)cc3)C(=O)O2)cc(OC)c1OC`, the “% Inhibition @ 10 uM” value falls from -0.351% to -20.1%.

Going from `O=C(CSc1cccs1)Nc1cccc2ccccc12` to `Cc1ccc(NC(=O)COc2ccc3ccccc3c2)cc1F`, the “% Inhibition @ 10 uM” value falls from 1.59% to 0.145%.

Going from `COc1ccc(S(=O)(=O)N2CCSC2c2ccc(OC)c(Br)c2)cc1` (centres unmarked) to `COc1ccc(S(=O)(=O)NCc2cccnc2)cc1Br`, the “% Inhibition @ 10 uM” value rises from -12.1% to 0.687%.

First: Fc1ccccc1Nc1nc(-c2cccs2)cs1
Second: O=C(Nc1cccc(-c2cc3ccccc3oc2=O)c1)c1ccccc1F
The “% Inhibition @ 10 uM” value of the first is higher: -3.44% for the first, -5.9% for the second.

Going from `COc1ccc(-c2noc(-c3nnn(-c4ccc(C(F)(F)F)c(Cl)c4)c3N)n2)cc1` to `COc1ccc(N2CCN(c3oc(COc4cccc(C)c4)nc3C#N)CC2)cc1`, the “% Inhibition @ 10 uM” value rises from 1.13% to 6.13%.

First: COc1ccc(CCN(C)CCC(=O)NCc2ccccc2)cc1OC
Second: CCN(C(=O)c1ccco1)c1ccccc1
The “% Inhibition @ 10 uM” value of the first is lower: -6.83% for the first, -4.31% for the second.

Going from `Cc1ccsc1CCNC(=O)CCc1c(C)nc2c(c(C)nn2C(C)(C)C)c1C` to `Cc1ccc(C)c(Cn2c(C)c(CNCCC3=CCCCC3)c(C(=O)O)c2C)c1`, the “% Inhibition @ 10 uM” value rises from -2.45% to 8.86%.

First: N=C1c2ccccc2CN1c1cccc(O)c1
Second: COc1cc(/C=C2/S/C(=N\c3ccccc3)N(C)C2=O)ccc1C
The “% Inhibition @ 10 uM” value of the first is lower: -5.28% for the first, 2.24% for the second.

Going from `Cc1ccc(C/N=c2/c(-c3cc(C)c(C)cc3C)c(O)c2=O)o1` to `CCN1CCN(CCC/N=c2/c(-c3ccccc3)c(O)c2=O)CC1`, the “% Inhibition @ 10 uM” value rises from -4.36% to 1.14%.

First: Cc1cccc(CNC(=O)c2ccc(CN3CC(=O)N4CCCCC4C3=O)cc2)c1 (centres unmarked)
Second: CCc1ccc(CNC(=O)C2CCC(=O)N2C2CCCC2)cc1 (centres unmarked)
The “% Inhibition @ 10 uM” value of the first is higher: 3.7% for the first, -1.21% for the second.

Compared with `C=CCN1C(=O)S/C(=C/c2ccccc2F)C1=O`, `CCOC(=O)C1=C(C)OC(N)=C(C#N)C1c1ccccc1F` (centres unmarked) is lower in “% Inhibition @ 10 uM” value: -0.28% for the first, -2.42% for the second.

Going from `CCOc1ccc(C2C3=C(O)CCCC3=Nc3nc(C(F)(F)F)nn32)cc1OC` (centres unmarked) to `COc1ccc(C2(C(=O)O)CCCC2)cc1OC`, the “% Inhibition @ 10 uM” value falls from -5.19% to -7.26%.

Going from `CC(=O)CCS(=O)(=O)c1ccc2ccccc2c1` to `CC(=O)NS(=O)(=O)c1ccc(NC(=O)c2c(-c3ccccc3)noc2C)cc1`, the “% Inhibition @ 10 uM” value rises from -2.03% to 0.316%.

First: FC(F)(F)c1cc(-c2ccco2)nc(NCc2cccnc2)n1
Second: CC(=O)c1cccc(NC(=O)c2cccc(C(F)(F)F)c2)c1
The “% Inhibition @ 10 uM” value of the first is higher: 3.33% for the first, -6.66% for the second.

Going from `O=C1N=C(Nc2ccccc2)S/C1=C\c1ccc(N2CCCC2)o1` to `Cc1nn(-c2ccccc2)c(Cl)c1/C=c1\sc2nc3ccccc3n2c1=O`, the “% Inhibition @ 10 uM” value falls from 5.54% to 2.79%.

Going from `CC1(C)CC(CC#N)(Cc2ccccc2)CCO1` (centres unmarked) to `COC(=O)[C@H](Cc1ccccc1)NC(=O)N[C@@H](CC(C)C)C(=O)NCC#N`, the “% Inhibition @ 10 uM” value rises from -4.35% to -3.04%.

First: CC1=C(C(=O)OCC2CCCO2)C(c2ccccc2)NC(=O)N1 (centres unmarked)
Second: CC1=NN(C(=O)Cn2c3c(c4ccccc42)CCCC3)C(O)(C(F)(F)F)C1 (centres unmarked)
The “% Inhibition @ 10 uM” value of the first is higher: 2% for the first, -0.25% for the second.

First: Cc1nn(-c2ccccc2)c(Cl)c1C1C(C#N)=C(N)OC2=C1C(=O)CC(C)(C)C2 (centres unmarked)
Second: CC1=C(C(=O)N2CCN(c3ccc(F)cc3)CC2)C(c2ccccc2Cl)C(C#N)=C(N)O1 (centres unmarked)
The “% Inhibition @ 10 uM” value of the first is lower: -2.8% for the first, 21.9% for the second.

Compared with `CCN(CC)CC#CC1(OC(C)=O)CCCCC1`, `CC(=O)c1cc(-c2ccc(F)cc2)n(CC(=O)N2CCN(C3CCCCC3)CC2)c1C` is higher in “% Inhibition @ 10 uM” value: 0.605% for the first, 3.07% for the second.

Compared with `O=C(NCC1OCCc2ccccc21)c1ccc(Cl)cc1Cl` (centres unmarked), `NC(=O)c1c(NC(=O)c2cccc(Cl)c2)sc2c1CCCC2` is lower in “% Inhibition @ 10 uM” value: 0.587% for the first, -6.22% for the second.

Compared with `O=C(CSc1nnc(C2COc3ccccc3O2)o1)NC1CCCCC1` (centres unmarked), `COc1ccc(-n2c(SCC(=O)NC3CCCCC3)nnc2-c2cccs2)cc1` is lower in “% Inhibition @ 10 uM” value: 5.1% for the first, 0.9% for the second.

Compared with `Nc1c([S+](O)c2ccccc2)sc2nc3c(cc12)CCCC3` (centres unmarked), `COCCCNC(=O)CSc1[nH]c(-c2ccc(F)cc2)nc1-c1ccccc1` is higher in “% Inhibition @ 10 uM” value: 1% for the first, 3.48% for the second.

Going from `Cc1ccc(S(=O)(=O)NC2CCN(c3ncccn3)CC2)cc1` to `Cc1ncsc1C(=O)NCc1ccc(S(N)(=O)=O)cc1`, the “% Inhibition @ 10 uM” value rises from -1.11% to 2.77%.

Going from `Cc1ccc2oc(C(=O)NCc3ccc4c(c3)OCO4)cc(=O)c2c1` to `CC(C)N(CCNC(=O)c1oc(=O)c2ccccc2c1-c1ccccc1)Cc1ccco1`, the “% Inhibition @ 10 uM” value rises from -3.24% to -2.88%.
